Screen size: about 48,000 compounds; about 1,200 (2.5%) were called active. Inconclusive results (about 2%) are left out.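 The calls were made as follows: active = activation of at least 60% and not above a set upper limit (about 1 call in 100 departs from these limits); inconclusive = activation of 40% to 60%, or above that upper limit; inactive = activation under 40%.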 This is one part of the list.
biological target: Probable G-protein coupled receptor 32 (Homo sapiens) (UniProt O75388); assay: qHTS for Agonists of Human Resolvin D1 Receptor DRV1; details: CHO-K1 GPR32 beta-arrestin PathHunter luminescence, 90 min; at 76.9 µM; hits give high values; zero percent set by DMSO-only wells; also: 0% is about no effect
Chain of UniProt O75388 (O75388 whole entry, looked up): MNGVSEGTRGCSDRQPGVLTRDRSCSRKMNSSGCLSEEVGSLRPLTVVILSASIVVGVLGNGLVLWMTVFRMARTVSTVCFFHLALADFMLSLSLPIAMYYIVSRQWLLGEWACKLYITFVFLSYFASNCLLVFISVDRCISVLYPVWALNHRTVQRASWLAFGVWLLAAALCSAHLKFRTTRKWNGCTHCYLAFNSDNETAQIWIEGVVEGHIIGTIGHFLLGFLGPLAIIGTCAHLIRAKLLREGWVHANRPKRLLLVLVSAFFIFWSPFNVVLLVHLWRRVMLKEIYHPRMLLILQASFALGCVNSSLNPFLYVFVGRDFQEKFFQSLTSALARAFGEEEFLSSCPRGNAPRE
Procedure, shortened: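 Step 1: seed CHO-K1 GPR32 beta-arrestin cells, 2,500/well, overnight at 37 °C. Step 2: add compounds, 90 min at 37 °C. Step 3: detection reagent, 1 h ambient, then luminescence.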

activation, inactive:
CC(=O)Nc1nonc1-c1nnc(SCc2ccc(Cl)cc2)n1C -3.83%
CCOC(=O)c1c(NC(=O)c2cc(=O)c3c(C)cc(C)cc3o2)sc(C(C)=O)c1C 5.71%
Cc1nn(S(=O)(=O)c2ccc(Cl)cc2)c(C)c1S(=O)(=O)N1CCCCCC1 -7.08%
CCc1cccc(CC)c1NC(=O)Cn1nnc2sc(-c3ccccc3)cc2c1=O 20.4%
COc1ccc(N2CCN(C(CNC(=O)CC(C)C)c3ccc4c(c3)OCO4)CC2)cc1 (stereo not drawn) -27.8%
CCCCOc1ccc(C2=NC(c3ccncc3)=Nc3ccc(Br)cc3N2)cc1 -41.8%
Cc1ccc(-c2nc3ccc(Cl)cn3c2Nc2ccc3c(c2)OCCO3)o1 -24.2%
COc1ccc(-c2nc(CS(=O)CC(=O)NCc3ccc(F)cc3)c(C)o2)cc1OC (stereo not drawn) -7.68%
Cc1c(Cl)cccc1-n1ncc(C(=O)N2CCc3ccccc3C2)c1C1CCN(C(=O)OC(C)(C)C)CC1 -9.16%
COc1ccc(OCC(=O)Nc2ccc(C(=O)OCc3cc(=O)n4nc(C)sc4n3)cc2)cc1 9.12%
CCCCCC(=O)O[C@]1(C(C)=O)CC[C@H]2[C@@H]3CCC4=CC(=O)CC[C@]4(C)[C@H]3CC[C@@]21C -4.27%
CCOc1ccccc1N(CC)C(=O)Nc1cn(C)c(=O)c2ccccc12 -18.8%
CCCCCn1c(=O)[nH]c2cc(C(=O)N3CCN(c4ccccc4)CC3)ccc2c1=O 26.5%
Oc1cc2c(cc1O)CN(C(=S)NCCc1ccc(Cl)cc1)CCC2 7.6%
Cc1ccc(/C=C/c2onc(C)c2S(=O)(=O)N2CCC(C(=O)N3CC(C)Oc4ccccc43)CC2)cc1 (stereo not drawn) -24.1%
CCc1ccc(NC(=O)CC2C(=O)N(c3cccc(OC)c3)C(=O)N2Cc2ccco2)cc1 (stereo not drawn) -5.22%
CCOc1ccccc1NC(=O)Nc1nnc(N(C)Cc2ccccc2)s1 -5.92%
Cc1ccc(NC(=O)c2oc3ccccc3c2NC(=O)Cc2cccs2)cc1 14.6%
COc1ccc2c(c1)cc1c(=O)n(CC(=O)NC3CCCCC3)nc(C)n12 7.57%
COc1cc(Cl)c(NS(=O)(=O)c2ccc3c(c2)CC(C)N3C(=O)C2CCC2)c(OC)c1 (stereo not drawn) 7.56%
CC(=O)N1CCC(N(C(=O)Nc2ccc(C)c(F)c2)C(C)C)CC1 -5.87%
COc1ccccc1NC(=O)CCS(=O)(=O)c1ccc2nc(C)sc2c1 -10.7%
CCCCCCC(=O)OC1CC(C)(C)NC(C)(C)C1 -1.68%
CCc1c(C)sc2c1CCN(C(=O)Nc1ccccc1C(F)(F)F)C2c1ccccc1 (stereo not drawn) 21.1%
Cc1ccccc1NC(=O)c1c(NC(=O)C(C)Oc2cccc(Cl)c2)sc2c1CCCC2 (stereo not drawn) -12.9%
COc1cc(Cl)c(C)cc1NC(=O)CCc1c(C)nc2cc(-c3cccc(F)c3)nn2c1C -1.83%
CCn1c(C(=O)N2CCCC(C(=O)NCCCOC)C2)cc2sccc21 (stereo not drawn) -2.61%
O=C(CCn1cnc2onc(-c3ccc(F)cc3)c2c1=O)N1CCN(c2ccc(F)cc2)CC1 4.32%
Cc1cccc(NC(=O)C2CCCN(S(=O)(=O)c3cccc4nonc34)C2)c1C (stereo not drawn) -11%
CCN1CCC(N(Cc2ccc3c(c2)OCO3)C(=O)Nc2cc(Cl)ccc2C(=O)OC)CC1 4.61%
Cc1cc(C(=O)O)c2c(=O)n(C)c(=O)n(C)c2n1 4.99%
COc1ccc(-c2cn3c(n2)sc2cc(C(=O)NC4CCCc5ccccc54)ccc23)cc1 (stereo not drawn) -6.38%
CCCOC(=O)c1c(C)oc2c1cc(NS(=O)(=O)c1ccc(OCC)cc1)c1ccccc12 0.447%
COc1cc2c(cc1NC(=O)COc1cc(C)ccc1C)oc1ccccc12 -11.9%
Cc1cc2oc(=O)c(CC(=O)NCCc3ccccc3)c(C)c2c2occ(C(C)(C)C)c12 -24.1%
Cc1cccc(N2CCN(C(=O)c3cn(C4CCCCC4)c(=O)c4c3c3ccccc3n4C)CC2)c1C -27.4%
CCCCN(C)CCCNC(=O)c1ccc2nc(N3CCCCC3)sc2c1 4.66%
CCN(C(=O)CCc1nc(-c2ccc(C)cc2)no1)c1cc(C)ccc1C -23.2%
Cc1cccc(OCCSc2nc3ccccc3n2CC(=O)N2CCCCC2)c1C -24.2%
CCN(Cc1ccccc1)Cc1c(O)ccc2c(=O)c(-c3ccccc3OC)c(C(F)(F)F)oc12 -1.09%
CC(=O)Nc1nonc1-c1nnc(SCC(=O)Nc2ccc(F)cc2F)n1-c1ccccc1 -15.1%
Cc1ccc(Cn2c(CNS(=O)(=O)c3c(C)cc(C)cc3C)nc3cccnc32)cc1 -25.3%
Cc1c(C)n(Cc2ccccc2)c2ccc(C(=O)NC(C)c3ccccc3)cc12 (stereo not drawn) -18.1%
Cc1cc(Cn2cnc3c2C[C@@H](C(=O)O)N(C(=O)C(c2ccccc2)c2ccccc2)C3)ccc1N 5.65%
CCOC(=O)c1ccc(N2CCN(c3cc(Cl)ccc3C)CC2)c(NC(=O)Nc2cccc(OC)c2)c1 -6.05%
CCOCCCNC(=O)C1CCCN(Cc2nc(-c3ccc(CC)cc3)oc2C)C1 (stereo not drawn) 40.5%
COc1ccc(N2CC(NC(=O)/C=C\c3ccc(OC)c(OC)c3)CC2=O)cc1 (stereo not drawn) -13.4%
CCc1ccc(-n2c(SC(CC)C(=O)N(CC)CC)nc3n[nH]c(C)c3c2=N)cc1 (stereo not drawn) 0.121%
Cc1nc(CC(=O)Nc2ccc(C)c(C)c2)cs1 -7.4%
CCOC(=O)N1CCN(S(=O)(=O)N2CCCC(C(=O)NCc3cc(OC)ccc3OC)C2)CC1 (stereo not drawn) -5.38%
CCc1ccc(OCC(=O)N(Cc2cccs2)c2ccc(Cl)cc2)cc1 9.72%
CCn1ccc2cc(S(=O)(=O)N3CCCN(C(=O)Nc4ccccc4OC)CC3)ccc21 -4.63%
CCCS(=O)(=O)c1ncc(Cl)c(C(=O)N2CCN(c3ccc(OC)cc3)CC2)n1 -20.2%
Cc1ccc(-c2cc(C(=O)NC(C)c3ccccc3)c3ccccc3n2)cc1C (stereo not drawn) -6.24%
CC(=O)Nc1ccccc1-c1nc2ccccc2n(CC(=O)c2ccc(C)c(C)c2)c1=O -12.2%
CCC(CC)C(=O)Nc1ccc(OCc2cc(=O)n3ccsc3n2)cc1 -10.2%
Cc1ccc2ncc(C(=O)NCc3ccccc3Cl)c(=O)n2c1 1.25%
COc1ccc(NC(=O)CSc2nc3ncccc3[nH]2)c(OC)c1 -0.99%
Cn1c(=O)cc(OCC(=O)N2CCN(c3ccccc3)CC2)c2ccccc21 6.94%
COc1ccc(NC(=O)C2CCCN(C(=O)c3cnn(-c4ccc(F)cc4)c3-n3cccc3)C2)cc1 (stereo not drawn) -5.42%
COc1ccc(-c2cc(C(=O)Oc3cccc(C)c3)c3ccccc3n2)cc1 -22.5%
Cc1ccc(CCNC(=O)C2CCN(c3nnc(C)c4c(C)n(-c5ccccc5)nc34)CC2)cc1 -0.964%
COc1ccc(C)cc1NCc1nnc2n1CCCCC2 11.1%
Cc1cc(OC(C)C(=O)N(Cc2ccco2)Cc2ccccc2F)cc(C)c1Cl (stereo not drawn) -14.6%
O=C(CCCCn1c(=O)c2ccccc2n(Cc2ccc(Cl)cc2)c1=O)NCc1ccccc1Cl -5.32%
CCc1ccccc1NC(=O)c1ccc(F)c(S(=O)(=O)NC2CCCCCC2)c1 -26%
Cc1ccc(NC(=O)CSc2nc3ccccc3c3nc(CCn4cncc4C)nn23)cc1F 33.9%
Cc1ccc(NC(=O)CSCc2cnn(-c3ccccc3)c2-n2cccc2)c(C)c1 -13%
CCOc1cccc2sc(N(Cc3cccnc3)C(=O)C3CCCCC3)nc12 -32.7%
Cc1ccc(C)c(N2CCN(CCCNC(=O)C3COc4ccccc4C3)CC2)c1 (stereo not drawn) 6.95%
CN1CCN(C(c2ccccc2Cl)c2sc3nc(-c4ccco4)nn3c2O)CC1 (stereo not drawn) -14.8%
CCC(=O)N1CCc2cc(Br)cc(S(=O)(=O)N3CCN(c4ccc(C(C)=O)cc4)CC3)c21 -2.24%
Cc1cccc(NC(=O)c2ccc(C(=O)Nc3cccc(C)c3C)cc2)c1C -1.23%
COc1ccccc1CNC(=O)CC1N=C2c3ccccc3N=C(SCC(=O)Nc3ccc(F)cc3)N2C1=O (stereo not drawn) 5.6%
O=C(c1nc(-c2ccc(Cl)cc2)n2c1CCCCC2)N1CCN(c2ccccc2F)CC1 22.3%
COc1ccccc1Nc1nn2c(=O)c3ccc(C(=O)N4CCC(C)CC4)cc3nc2s1 -2.71%
O=C(Cn1nc(-c2ccccc2)ccc1=O)NCc1ccc(F)cc1Cl -18%
COc1ccc(S(=O)(=O)Nc2cccc(-c3ccc(N4CCOCC4)nn3)c2)cc1F -3.08%
COc1cc(NC(=O)c2c(-c3ccc(C)cc3)nnc3ccccc23)cc(OC)c1OC -3.23%
Cc1oc2c(c1C(=O)Nc1cccc(Br)c1)C1=NCCN1C=N2 -14.4%
CC1=C(C(=O)OC2CCCC2)C(c2ccc(F)cc2F)CC(=O)N1 (stereo not drawn) 15.2%
Cc1ccc(CS(=O)(=O)c2cn(CC(=O)N(C)c3ccccc3)c3ccccc23)cc1 -5.52%
Cc1nc2scc(C)n2c(=O)c1S(=O)(=O)NCc1ccccc1Cl 2.79%
